Experimental data: the supplement of paper PMC9433436
± gives the standard deviation of the averaged measurements. Whole data set: some 4,100 sequences, median “relative kcat/Km (krel) vs genomic leader AAAGAU” near 1.7, cut for the highest 2% near 6.5. Only a part is listed here, and it is no random draw.

Target: T1, E. coli RNase P holoenzyme (M1 P RNA + rnpA protein) (UniProt P0A7Y8)
T1 sequence: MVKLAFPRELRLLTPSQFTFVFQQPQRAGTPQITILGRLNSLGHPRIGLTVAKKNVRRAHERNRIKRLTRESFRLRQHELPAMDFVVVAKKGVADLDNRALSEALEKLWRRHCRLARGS
Experiment: relative kcat/Km (krel) vs genomic leader AAAGAU (relative (reference leader = 1)); higher = faster RNase P cleavage
Description: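 HTS-Kin: a pool of ptRNA-Met (21C construct) with all 4096 combinations of 5' leader nucleotides N(-6) to N(-1) was processed in vitro by E. coli RNase P (P RNA + rnpA/C5 protein) under multiple-turnover conditions at 37 C, pH 8, 17.5 mM MgCl2. Residual substrate was Illumina-sequenced at several fractions reacted, and relative kcat/Km (krel) was computed by internal competition kinetics, calibrated to the genomic leader (AAAGAU = 1). The listed hexamer is the varied N(-6)..N(-1) leader (DNA letters), and it sits between a fixed 5' stem-loop flank (GCAUGCACGAAAGUGCGUGCUAUGAA) and the mature tRNA-Met starting GGCUACGUAGCUCAGUUGG. Two technical replicates are averaged.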

[1] = fraction of substrate reacted: ~9-10% (9.79% repeat 1, 9.1% repeat 2)
[2] = fraction of substrate reacted: ~13-16% (15.68% repeat 1, 13.17% repeat 2)
[3] = fraction of substrate reacted: ~26-29% (28.66% repeat 1, 26.4% repeat 2)

| Sequence | relative kcat/Km [1] | relative kcat/Km [2] | relative kcat/Km [3] |
| --- | --- | --- | --- |
| CCTCAC | 2.54 ± 0.75 | 3.07 ± 0.55 | 4.22 ± 1.2 |
| CCTGCA | 2.11 ± 2.1 | 1.19 ± 0.28 | 1.72 ± 0.075 |
| CATATG | – | 0.7 ± 0.15 | 2.03 ± 0.046 |
| GTACTC | 2.13 ± 1.3 | 2.3 ± 0.072 | 2.74 ± 0.8 |
| CACCGC | 2.34 ± 0.56 | 3.87 ± 1.6 | 5.89 ± 2.7 |
| CGAGGT | – | – | 1.41 ± 1.2 |
| CCCGAA | 2.83 ± 1.5 | 4.35 ± 1.8 | 6.76 ± 2.5 |
| TCCAAT | 3.48 ± 2.1 | 4.14 ± 0.76 | 6.63 ± 2.2 |
| TAGATT | 1.8 ± 0.39 | 2.38 ± 0.32 | 3.32 ± 1.5 |
| AACGAG | – | 1.42 ± 0.15 | 2.41 ± 0.57 |
| TAATAC | 3.99 ± 2.4 | 4.78 ± 0.74 | 6.42 ± 2.7 |
| GAGTGC | 1.03 ± 0.13 | 1.33 ± 0.72 | 1.47 ± 0.14 |
| CATTTT | 2.65 ± 1.1 | 3.21 ± 1.1 | 4.88 ± 2.1 |
| TCAGTG | – | – | 0.958 ± 0.53 |
| AAGGGC | 0.68 ± 0.22 | – | – |
| AGTGAT | 1.12 ± 0.52 | 1.2 ± 0.46 | 1.1 ± 0.13 |
| GCGATG | – | – | 1.2 ± 0.27 |
| ATGTGA | – | 1.3 ± 0.95 | 2.33 ± 0.9 |
| TAAAAT | 2.3 ± 1 | 2.59 ± 0.13 | 3.6 ± 1.6 |
| GGACTA | 1.56 ± 0.44 | – | 1.3 ± 0.29 |
| CAGACC | 2.58 ± 1.8 | 1.99 ± 0.3 | 1.97 ± 0.42 |
| ACTATC | 1.58 ± 0.92 | 1.63 ± 0.33 | 2.1 ± 0.46 |
| TCTCTC | 2.46 ± 0.63 | 2.53 ± 0.076 | 3.23 ± 1.1 |
| CTCGGA | – | – | 0.671 ± 0.41 |
| TCGGGC | – | – | 1.18 ± 0.74 |
| ATGGGA | – | – | 1.49 ± 1.4 |
| CCCATT | 3.01 ± 1.9 | 3.28 ± 1 | 4.55 ± 1.2 |

| Sequence | relative kcat/Km [1] | relative kcat/Km [2] | relative kcat/Km [3] |
| --- | --- | --- | --- |
| CACTAA | 4.69 ± 2 | 6.03 ± 0.39 | – |
| GGTGAT | 1.04 ± 0.56 | 1.41 ± 0.93 | 0.836 ± 0.12 |
| TCGTAA | 3.3 ± 0.9 | 3.79 ± 0.62 | 6.16 ± 2.7 |
| AGCCAT | 3.54 ± 1.2 | 3.08 ± 0.86 | 4.77 ± 2 |
| AATGAA | 2.18 ± 1.1 | 2.14 ± 0.073 | 2.72 ± 0.88 |
| CCCAAT | 2.73 ± 0.86 | 3.48 ± 0.28 | 5.27 ± 1.6 |
| CTATTT | 2.47 ± 0.62 | 2.94 ± 0.044 | 4.35 ± 1.7 |
| TTACTC | 2.66 ± 1.6 | 2.15 ± 0.39 | 2.78 ± 1.1 |
| ATTAGC | 2.45 ± 0.043 | 2.96 ± 1.1 | 3.69 ± 2.3 |
| AATAAA | 2.18 ± 0.14 | 2.61 ± 0.59 | 3.16 ± 1.1 |
| GCTGCA | 1.48 ± 0.78 | 1.42 ± 0.66 | 1.21 ± 0.6 |
| TTCACA | 4.51 ± 1.9 | 5.55 ± 0.86 | 7.72 ± 3.1 |
| GAGAGT | 0.122 ± 0.072 | 1.48 ± 0.097 | – |
| TTGTAA | 3.67 ± 1.1 | 4.3 ± 1.1 | 6.19 ± 2.7 |
| TAGTTC | 2.74 ± 1.1 | 3.13 ± 0.089 | 4.29 ± 1.8 |
| GGGCAG | – | – | 1.13 ± 0.077 |
| GACCTT | 2.25 ± 0.24 | 3.46 ± 0.31 | 5.08 ± 2.5 |
| CACGGG | – | – | 0.479 ± 0.22 |
| TCTCCC | 1.59 ± 0.21 | 1.94 ± 0.69 | 3.09 ± 1.2 |
| GGATGT | – | – | 1.06 ± 0.81 |
| TGTCAG | – | 1.4 ± 0.17 | 3.3 ± 0.62 |
| GGGCGA | 0.804 ± 0.064 | 0.798 ± 0.057 | 1.72 ± 0.52 |
| TGATGG | 1.11 ± 0.94 | – | 0.867 ± 0.14 |
| AACCCC | 3.18 ± 2.8 | 2.43 ± 0.93 | 2.61 ± 0.82 |
| ACGAAA | 1.79 ± 0.39 | 1.66 ± 0.37 | 2.72 ± 1.1 |
| AGCATC | 1.66 ± 0.9 | 1.68 ± 0.58 | 2.86 ± 0.74 |
| TCCAAC | 3.85 ± 2 | 4.11 ± 0.11 | 5.77 ± 1.9 |
